# Source: PubChem BioAssay AID1347120 (National Center for Advancing Translational Sciences (NCATS), 2019)
# Hit rate of the full screen: of about 390,000 compounds, about 930 (0.24%) were called active. This list was built around the results that the source calls inconclusive (neither active nor inactive); the mix of calls is not that of the screen. Calls come from the whole dose curve; as a rule, active = well fitted activation curve with a large enough effect; inconclusive = small, poorly fitted or top-dose-only effect; inactive = no such curve, though single readings can be large or run the other way. Potencies of inconclusive entries are doubtful fits and often do not repeat.
# Assay: qHTS for Suppressors of FUS Proteinopathy: Primary screen using FUS-linked yeast assay; note: nearly all actives have a fitted effect of over 55% in size
# Details: S. cerevisiae FUS-expressing, OD600, 24 h; Potency: growth rescue; series mostly up to 76.6 µM
# Method in brief: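 Restored growth of FUS-toxic S. cerevisiae, read as 600 nm absorbance after 24 h at 30C in galactose medium (starting OD 0.005). Controls CP55940 and DMSO.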
# Potency is the fitted concentration of half-maximal effect; tags give direction and shape of the fitted curve.
row,SMILES,Potency
1,Clc1ccc([C@H]2OC[C@@]3(CNCc4ccc5c(c4)OCO5)CS[C@H](c4ccc(Cl)cc4)N23)cc1,"inconclusive: 25.1 µM [activator, single point]"
2,CCOc1ccc(NC(=O)c2c(NCc3cccs3)sc3c2CCC(C)C3)cc1 (configuration not stated),"inconclusive: 39.8 µM [activator, single point]"
3,CCOC(=O)[C@]12CCC=C1N(Cc1cccc3ccccc13)C(=O)[C@H](CC(=O)N1CCSCC1)C2,"inconclusive: 20 µM [activator, single point]"
4,COCc1cc(=O)n2[nH]c(-c3ccsc3-n3c(C)ccc3C)cc2n1,"inconclusive: 17.8 µM [activator, partial curve]"
5,Nc1c(Cl)cc(-c2csc(N3CCCC3c3nc4cc(Cl)c(N5CCCCC5)cc4n3CCOCCO)n2)cc1Cl (configuration not stated),"inconclusive: 31.6 µM [activator, single point]"
6,CCOc1cc(/C=C2\N=C(SC(C)C(N)=O)N(c3ccc(OC(F)F)cc3)C2=O)ccc1O (configuration not stated),"inconclusive: 56.2 µM [activator, partial curve, poor fit]"
7,CCOC(=O)c1ccc(N=C2SC(C(=O)Nc3ccccc3)CC(=O)N2C)cc1 (configuration not stated),inactive
8,Nc1ccc(Nc2ccccc2N)cc1,"inconclusive: 25.1 µM [activator, partial curve]"
9,Cc1ccc(-n2nc3c(=O)n(CCCC(=O)NCc4cccc(Cl)c4)nc(C)c3c2C)cc1,"inconclusive: 15.8 µM [activator, partial curve]"
10,Cc1ccc(C)c(OCCC(=O)Nc2cccc(S(=O)(=O)NC3=NCCCCC3)c2)c1,"inconclusive: 25.1 µM [activator, partial curve]"
11,COc1ccc(Cl)cc1NC(=O)CN(C)CC(=O)Nc1ccc(S(N)(=O)=O)cc1,inactive
12,CCS(=O)(=O)Nc1ccc(C2=NN(S(=O)(=O)c3ccc(F)cc3)C(c3ccco3)C2)cc1 (configuration not stated),"inconclusive: 22.4 µM [activator, partial curve, poor fit]"
13,COc1ccc(NC(=O)CN(C)C(=O)c2cc(-c3ccco3)nc3ccccc23)cc1,"inconclusive: 15.8 µM [activator, partial curve, poor fit]"
14,CC(NC(=O)C1CCCC1)c1ccc(Br)cc1 (configuration not stated),"inconclusive: 50.1 µM [activator, single point]"
15,COc1ccccc1CNC(=O)c1cc(S(=O)(=O)N2CCCC(C)C2)cn1C (configuration not stated),inactive
16,CC(C)C[C@H](NC(=O)c1nc[nH]c1C(=O)N1CCc2ccccc2C1)C(=O)OCc1ccccc1,"inconclusive: 31.6 µM [activator, single point]"
17,Cc1ccc(-n2nc(C)c3c(C(F)(F)F)cc(-c4cccnc4)nc32)cc1C,inactive
18,C=CCn1c(SCc2c(C(=O)OC)sc(N)c2C(=O)OC)nnc1-c1ccc(Cl)cc1,"inconclusive: 39.8 µM [activator, single point]"
19,CC(=O)O[C@@H]1[C@H](OC(=O)CC(C)C)c2c(ccc3ccc(=O)oc23)OC1(C)C,"inconclusive: 15.8 µM [activator, partial curve, poor fit]"
20,O=C1/C(=C\c2ccco2)NC(=S)N1c1ccccc1,"inconclusive: 50.1 µM [activator, single point]"
21,COc1ccc(S[C@]2(C(=O)N(C)C)CC(=O)N(S(=O)(=O)c3ccc(F)cc3)[C@@H]2c2ccc(OC)cc2)cc1,"inconclusive: 31.6 µM [activator, partial curve, poor fit]"

row,SMILES,Potency
1,COC(=O)CCC(=O)N1CCOCCOCCN(C(=O)CCC(=O)OC)CCOCCOCC1,"inconclusive: 31.6 µM [activator, partial curve, poor fit]"
2,Cc1ccc(NC(=O)CN(C)CC(=O)Nc2sc3c(c2C(N)=O)CCC3)cc1,"inconclusive: 4.47 µM [activator, full curve]"
3,CN(CC(=O)Nc1ccc(Cl)cc1)C(=O)C1CCCC1,inactive
4,CCN1C(=O)c2ccccc2S(=O)(=O)c2ccc(C(=O)NCc3ccccc3OC)cc21,"inconclusive: 25.1 µM [activator, partial curve, poor fit]"
5,CCC1CN(C(=O)N2CCC(C(=O)NCc3cccc(F)c3)CC2)c2cc(C)ccc2O1 (configuration not stated),inactive
6,NC(=O)C1CCN(C(=O)c2ccc3nc(-c4ccccc4)c(-c4ccccc4)nc3c2)CC1,inactive
7,CCOc1ccc(NC(=O)CSc2nnc(Cc3cccn3C)n2-c2ccc(OC)cc2)cc1,"inconclusive: 25.1 µM [activator, partial curve]"
8,CN(C)c1ncc(C2=C(Cl)C(=O)C(N3CCCC3)=C(Cl)C2=O)s1,"inconclusive: 7.94 µM [activator, partial curve, poor fit]"
9,CCn1c(C)c(C)c2cc(C(=O)NCCN3CCCCCC3)ccc21,"inconclusive: 14.1 µM [activator, partial curve, poor fit]"
10,O=C(CCn1ccc2ccccc21)Nc1ccc(N2CCOCC2)cc1,"inconclusive: 44.7 µM [activator, partial curve, poor fit]"
11,Cc1cccc(-c2cccc(NC(=O)C3CCCN(C(=O)c4csc(C)n4)C3)c2)c1 (configuration not stated),"inconclusive: 44.7 µM [activator, single point]"
12,COc1cc2ccccc2cc1C(=O)N1CCN(c2ccccc2O)CC1,"inconclusive: 17.8 µM [activator, partial curve, poor fit]"
13,Cc1cc(-c2nnc(SCC(=O)Nc3cccc4ccccc34)n2N)n[nH]1,inactive
14,COc1ccccc1NS(=O)(=O)c1cn(C)c(C)n1,inactive
15,O=C(Nc1nc2ccccc2n1CCN1CCCC1)C1CCCCC1,"inconclusive: 50.1 µM [activator, single point]"
16,O=C(Nc1ccc2c(c1)OCCO2)C(c1ccncc1)n1c(=O)c(-c2cc3ccccc3[nH]2)nc2ccccc21 (configuration not stated),inactive
17,O=C(NCCCc1ccccc1)[C@H](Cc1ccccc1)NC1(C(=O)NCCc2c[nH]c3ccccc23)CCC1,"inconclusive: 14.1 µM [activator, partial curve]"
18,CCn1c(Cc2cccs2)nnc1SCC(=O)Nc1ccc2c(c1)OCCO2,inactive
19,CCCCn1c(=O)[nH]c(=O)c2c1nc(CN1C(=O)c3ccccc3S1(=O)=O)n2CCC,inactive
20,CC(C)c1ccc(NC(=O)c2ccc(=O)n(Cc3ccccc3)c2)cc1,"inconclusive: 50.1 µM [activator, single point]"
21,CCc1ccc(-n2c(=O)c3ccccc3n(Cc3ccccc3C#N)c2=O)cc1,inactive

row,SMILES,Potency
1,CCCN(CC(=O)Nc1ccccc1C)C(=O)c1ccc2[nH]c3c(c2c1)CC(C)CC3 (configuration not stated),"inconclusive: 31.6 µM [activator, single point]"
2,Cc1[nH]c2ccccc2c1C(=O)CSc1nc2cc(S(=O)(=O)N3CCCCC3)ccc2o1,"inconclusive: 20 µM [activator, partial curve, poor fit]"
3,Cc1ccc(-n2c(=O)c3oc4ccccc4c3n(Cc3cccc(F)c3)c2=O)cc1C,"inconclusive: 31.6 µM [activator, partial curve, poor fit]"
4,S=C(NCCc1ccccc1)N1CCC2CC1c1cc(-c3ccc4c(c3)OCO4)ccc12 (configuration not stated),inactive
5,O=C(CSc1nnc(-c2ccco2)c(-c2ccco2)n1)c1ccccc1,inactive
6,COc1c(Cl)cc(C(=O)NN)cc1Cl,inactive
7,C=CCn1c2ccccc2c2nnc(SCN3C(=O)c4ccccc4C3=O)nc21,"inconclusive: 35.5 µM [activator, partial curve, poor fit]"
8,O=C(CS(=O)(=O)Cc1ccccc1)N1CCc2ccccc21,"inconclusive: 39.8 µM [activator, partial curve, poor fit]"
9,C=CCN(C(=O)CSC1=NC(=O)CN1C(C)=O)c1nc(C)c(-c2ccccc2)s1,"inconclusive: 44.7 µM [activator, single point]"
10,N/C(=N\OC(=O)c1ccc2c(c1)OCO2)c1cccc(Br)c1,inactive
11,COC(=O)[C@@]12C[C@@H](CC(=O)NCC34CC5CC(CC(C5)C3)C4)C(=O)N(CCc3ccc(OC)c(OC)c3)C1=CCC(C)(C)C2,"inconclusive: 25.1 µM [activator, partial curve, poor fit]"
12,Cc1cccc(NC(=O)Cn2c(=O)n(Cc3ccccc3)c(=O)c3oc4ccccc4c32)c1C,inactive
13,COc1ccccc1N(C)S(=O)(=O)c1ccc(C(=O)NCc2ccccc2CN2CCCC2)cc1,"inconclusive: 12.6 µM [activator, partial curve]"
14,Cc1ccc(C(=O)C2=C(O)C(=O)N(Cc3ccco3)C2c2cccc(Br)c2)o1 (configuration not stated),"inconclusive: 25.1 µM [activator, partial curve, poor fit]"
15,C#CCNC(=O)C1=C[C@@H](c2cn(C(C)=O)c3ccccc23)C[C@@H](OCc2ccc(CO)cc2)O1,"inconclusive: 11.2 µM [activator, partial curve, poor fit]"
16,CC(C)c1cc(C(=O)OCC(=O)NC2CCS(=O)(=O)C2)c(O)c(C(C)C)c1 (configuration not stated),inactive
17,Cc1ccc(CNC(=O)c2c(Nc3ccccc3C)sc(C(=O)c3ccc(F)cc3)c2N)cc1,"inconclusive: 20 µM [activator, partial curve, poor fit]"
18,CCc1cnc2c(c1SC(C(C)=O)C(=O)N(C)C)c(=O)n(C)c(=O)n2C (configuration not stated),inactive
19,O=C(Cc1cccc(NC(=O)C2CCCN(C(=O)CCc3ccccc3)C2)c1)Nc1cccc(C(=O)N2CCCC2)c1 (configuration not stated),"inconclusive: 28.2 µM [activator, partial curve, poor fit]"
20,Cc1ccc(-c2nnc(SCC(=O)N/N=C/c3ccccc3C(=O)O)n2C2CCCCC2)cc1,"inconclusive: 11.2 µM [activator, partial curve]"
